In a compilation of properties of binary mixtures (doi:10.1007/s10953-009-9410-7):
The densities may have been worked out from excess volumes.

Assay: xn = mol fraction of the nth substance listed
Details: 101 kPa

CCCC[n+]1ccn(C)c1.N#C[S-] + CCCCCCO
mass density [kg/m3]
Details | 298.15 K | 308.15 K | 318.15 K | 328.15 K | 338.15 K | 348.15 K
x2 = 0 | 1069.8 | 1063.9 | 1058 | 1052.2 | 1046.4 | 1040.7
x2 = 0.0424 | 1063 | 1057.1 | 1051.2 | 1045.4 | – | –
x2 = 0.1505 | – | – | 1032.5 | 1026.6 | 1020.8 | 1015
x2 = 0.3093 | 1013.1 | 1007 | 1000.9 | 994.9 | – | 983.1
x2 = 0.453 | 981.2 | – | 968.8 | 962.7 | – | 950.4
x2 = 0.5773 | 950.4 | 944.1 | 937.7 | 931.4 | – | 918.7
x2 = 0.6307 | 936.2 | 929.7 | – | 916.9 | 910.4 | 904
x2 = 0.6962 | 917.7 | 911.2 | 904.6 | – | 891.5 | 884.9
x2 = 0.7583 | 899.2 | 892.5 | 885.9 | – | 872.4 | 865.7
x2 = 0.8512 | 869.5 | 862.7 | 855.8 | – | 841.9 | 834.9
x2 = 0.9102 | 849 | – | – | 828 | 820.8 | 813.4

CCCCCO + CCCC[n+]1ccn(C)c1.N#C[S-]
x1 = 1
Details | mass density [kg/m3]
308.15 K | 803.5
318.15 K | 796
328.15 K | 788.3
338.15 K | 780.4
348.15 K | 772.2

CCCCCCO + CCCC[n+]1ccn(C)c1.N#C[S-]
x1 = 1
Details | mass density [kg/m3]
298.15 K | 814.9
318.15 K | 800.4
328.15 K | 792.9
348.15 K | 777.4

CCCCO + CCCC[n+]1ccn(C)c1.N#C[S-]
x1 = 1
Details | mass density [kg/m3]
298.15 K | 805.8
308.15 K | 798.1
318.15 K | 790.2
338.15 K | 773.9
